± gives the standard deviation of the averaged measurements. The list shows a part of the results.

This test relates to PfAP2-G AP2 domain (GST-tagged). Nature of the test: gcPBM binding intensity (ln(normalized median fluorescence intensity)); higher = stronger DNA binding. In outline:
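An Agilent 4 × 180k array carrying primer-extended double-stranded 36-bp intergenic genomic probes and negative controls received GST-tagged P. falciparum DNA-binding domains expressed in E. coli, about 25 μg on average, for 1 h. The binding buffer contained 1× PBS, 1% milk, 0.2 mg/ml BSA, 0.5% salmon testes DNA and 0.03% Triton X-100. Binding intensity is the top Masliner-normalised natural-log median intensity across replicate spots of either probe orientation, read after Alexa488 anti-GST antibody staining and a 488 nm scan.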
In the case of “AAAAAATAATTGAAGTGTACGTACAATGATTTTACT [XGTACX_site7663]”, the “gcPBM binding intensity (ln)” value is 11.8 ± 1.1.

As for “GTATTCTACAGACACATACACACATATATATATATA [CACACA_site3427]”, the “gcPBM binding intensity (ln)” value is 10.29 ± 0.085.

Turning to “ATATAAATAATATAAATACACACTAAAAAAAATATA [CACACA_site542]”, the “gcPBM binding intensity (ln)” value stood at 10.07 ± 0.057.

As for “TTTATTTTCATATGAACACACATATATATATTATAA [CACACA_site2369]”, the “gcPBM binding intensity (ln)” value is 10.2 ± 0.24.

Consider TGTTCTGAACGGTTCATGCACTTTTTTTTGTTAATT, for which the “gcPBM binding intensity (ln)” value turned out to be 10.2 ± 0.21.

With “CTGTTTTTGTTTTAAAGTACATTGTTCAATATACAT [XGTACX_site5288]”, the “gcPBM binding intensity (ln)” value was determined as 11.1 ± 0.61.

“TACAATGTGGATAATTGTACAAAACCGATAAGAGGG [XGTACX_site6453]”: the “gcPBM binding intensity (ln)” value stood at 10.8 ± 0.42.

As for “TTATATACCCTAATATGTTTTATTATTATTATATAT [TGCATGCA_negctrl_site6]”, the “gcPBM binding intensity (ln)” value was found to be 9.945 ± 0.078.

As to “TATATTCTACAAGAATTATGAATTGTCAGACCAAAT [CACACA_negctrl_site1101]”, the “gcPBM binding intensity (ln)” value came out at 10.2 ± 0.28.

For the sequence “TATATTATATACGTCTGTACACAAATGAGAGGTAAA [XGTACX_site5538]”, the “gcPBM binding intensity (ln)” value amounted to 11.5 ± 0.75.

Regarding “ATGTTAAGAATAATTAGTACTTACATATGTATAATA [XGTACX_site4419]”, the “gcPBM binding intensity (ln)” value was found to be 10.9 ± 0.57.

On to “ATAATTTATATTCAGAAACACACGAAAAAAAAAAAT [CACACA_site1296]”, for which the “gcPBM binding intensity (ln)” value came to 10 ± 0.12.

On to “AACTAAACAAAAGTTACACACATCATACGATATTAT [CACACA_site3180]”, for which the “gcPBM binding intensity (ln)” value turned out to be 9.92 ± 0.057.

“AGCAGAGTTACAATTTGTACGTAATTGATATAGATA [XGTACX_site4051]”: the “gcPBM binding intensity (ln)” value was 11.3 ± 0.84.

Turning to “AACATATTATCTTGTGAAAATAATATAAGTCACATT [TGCATGCA_negctrl_site339]”, the “gcPBM binding intensity (ln)” value was 9.98 ± 0.2.

Turning to “ATATATATATATATTTGTACAGAAAATATTTTAATA [XGTACX_site3706]”, the “gcPBM binding intensity (ln)” value came out at 10.9 ± 0.66.

Consider “ACAAAATGTAAATAAACACACATATATATATATATA [CACACA_site1281]”, for which the “gcPBM binding intensity (ln)” value is 10.2 ± 0.56.

For “TTATAAAAAAAAAAAAAAAATATATATATATATATA [XGTACX_negctrl_site592]”, the “gcPBM binding intensity (ln)” value amounted to 10.3 ± 1.1.

Take “AAAAAATAATAATAAAATGAATAGATATGTATTTAT [TGCATGCA_negctrl_site210]”: the “gcPBM binding intensity (ln)” value stood at 9.65 ± 0.39.

With “AATAATATATATTGTACACACAAAATGGGAAAAAAA [CACACA_site5100]”, the “gcPBM binding intensity (ln)” value turned out to be 11.4 ± 0.81.

For the sequence “ATATATATATATATGTGTACTTATAAATATATCTGT [XGTACX_site4337]”, the “gcPBM binding intensity (ln)” value was found to be 11.4 ± 0.93.

In the case of “AAAAGAATTTAGAAGGCATGCACTTAAACATGGATA [TGCATGCA_site699]”, the “gcPBM binding intensity (ln)” value is 9.945 ± 0.092.

Regarding “ATAAAATATATATGCACACACATATATATTTCATAC [CACACA_site3547]”, the “gcPBM binding intensity (ln)” value is 9.95 ± 0.099.

For the sequence “ACATAAAATAAATATACACACATATGTATATATTAT [CACACA_site3041]”, the “gcPBM binding intensity (ln)” value was determined as 9.945 ± 0.021.

As to “TAAATATTTTATTGTACACACTTTTTATGAATGATG [CACACA_site5694]”, the “gcPBM binding intensity (ln)” value came out at 11.6 ± 0.93.

With “AATATTTAAAACAAATCACACATGTATCCATAAATG [CACACA_site5308]”, the “gcPBM binding intensity (ln)” value was found to be 10.3 ± 0.18.

On to “ATATCCCATATGTAATGTACTTACACTTTCTTAATT [XGTACX_site7020]”, for which the “gcPBM binding intensity (ln)” value amounted to 11.2 ± 0.75.

Turning to “TATAAAAAGGAAAAATAAAAATAAAAATAAAAATTA [CACACA_negctrl_site1822]”, the “gcPBM binding intensity (ln)” value turned out to be 9.48 ± 0.18.

For TCTTTTAAAAATTAAGTGCATGTCCTTATAACAAAA, the “gcPBM binding intensity (ln)” value stood at 10.8 ± 0.67.

Consider “AGGGAATAATATTAATGTACATATATGAACTTGTTT [XGTACX_site6089]”, for which the “gcPBM binding intensity (ln)” value was found to be 11.1 ± 0.57.

Turning to “ATATATAACTTTTCTTAACACACAAAAAACAAAAAT [CACACA_site8748]”, the “gcPBM binding intensity (ln)” value stood at 10.2 ± 0.25.

On to “TCATAAACATTATGCACACAAAAATAAAAAAAAATA [CACACA_site1115]”, for which the “gcPBM binding intensity (ln)” value was found to be 10.1 ± 0.18.

Take “AAAAAAATAATGTACACACACATATCTGTTTATATA [CACACA_site4270]”: the “gcPBM binding intensity (ln)” value came to 11.4 ± 0.83.

In the case of “ATATTTATATATATATGTACATATGTGTGTTTTTAT [XGTACX_site3956]”, the “gcPBM binding intensity (ln)” value is 10.9 ± 0.51.

Take “CGAACAAACAAATAAACACACAAAAAAAGATATATA [CACACA_site6944]”: the “gcPBM binding intensity (ln)” value stood at 9.84 ± 0.14.

For the sequence “AGATATATTATTAGGTGTACTATAAAATAAATTCAC [XGTACX_site221]”, the “gcPBM binding intensity (ln)” value stood at 11.4 ± 0.94.

Regarding “AAAAAAAATTAGGAAACATGCATGTCCCGATAAATA [TGCATGCA_site149]”, the “gcPBM binding intensity (ln)” value worked out at 10.28 ± 0.049.

On to “GTACACTAATTATGTGCACACAAATTAAAGGTCTAC [CACACA_site146]”, for which the “gcPBM binding intensity (ln)” value was determined as 11.3 ± 0.49.

On to ATAATAAAATGGAGAGTGCATACATGTTTATTTTAT, for which the “gcPBM binding intensity (ln)” value was determined as 10.2 ± 0.13.

For “AAAATCAAGTAGTATAAAGTAAGTATCATAAAAATA [CACACA_negctrl_site1554]”, the “gcPBM binding intensity (ln)” value is 10.3 ± 0.16.

As to “AAATTTACAATACATTGTACATATTAATAATATTCC [XGTACX_site3646]”, the “gcPBM binding intensity (ln)” value was 10.9 ± 0.49.

For “AGACATAAGATAATTACACACAATACATCCCTATAT [CACACA_site2227]”, the “gcPBM binding intensity (ln)” value came out at 9.86 ± 0.14.

On to “TACTTCTACAAGAGAAGTACAATATTTTTTATATTA [XGTACX_site8351]”, for which the “gcPBM binding intensity (ln)” value was found to be 11.3 ± 0.81.

“AATAAAAATTTACTTTGTACACATATTAAATTCAAT [XGTACX_site1957]”: the “gcPBM binding intensity (ln)” value is 11.2 ± 0.81.

As to “TTACTCATGAAAGATACACACATTCATTATATATAT [CACACA_site3252]”, the “gcPBM binding intensity (ln)” value came out at 9.97 ± 0.11.

For the origin of these results see the supplement of paper PMC11417369.
